{
  "source": "paper PMC6919601",
  "about": "“Identification of Plasmodium dipeptidyl aminopeptidase allosteric inhibitors by high throughput screening” (PLoS ONE, 2019)",
  "note": "Among all 110,000 compounds or so, about 230 (0.21%) showed an effect of 50% or more. Some of the results follow.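 Further: 30 min substrate incubation versus DMSO and 10 µM JCP410 controls.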",
  "data": [
    {"target": "DPAP1 (Plasmodium falciparum, UniProt Q8IIJ9)", "sequence (Q8IIJ9 whole entry, looked up)": "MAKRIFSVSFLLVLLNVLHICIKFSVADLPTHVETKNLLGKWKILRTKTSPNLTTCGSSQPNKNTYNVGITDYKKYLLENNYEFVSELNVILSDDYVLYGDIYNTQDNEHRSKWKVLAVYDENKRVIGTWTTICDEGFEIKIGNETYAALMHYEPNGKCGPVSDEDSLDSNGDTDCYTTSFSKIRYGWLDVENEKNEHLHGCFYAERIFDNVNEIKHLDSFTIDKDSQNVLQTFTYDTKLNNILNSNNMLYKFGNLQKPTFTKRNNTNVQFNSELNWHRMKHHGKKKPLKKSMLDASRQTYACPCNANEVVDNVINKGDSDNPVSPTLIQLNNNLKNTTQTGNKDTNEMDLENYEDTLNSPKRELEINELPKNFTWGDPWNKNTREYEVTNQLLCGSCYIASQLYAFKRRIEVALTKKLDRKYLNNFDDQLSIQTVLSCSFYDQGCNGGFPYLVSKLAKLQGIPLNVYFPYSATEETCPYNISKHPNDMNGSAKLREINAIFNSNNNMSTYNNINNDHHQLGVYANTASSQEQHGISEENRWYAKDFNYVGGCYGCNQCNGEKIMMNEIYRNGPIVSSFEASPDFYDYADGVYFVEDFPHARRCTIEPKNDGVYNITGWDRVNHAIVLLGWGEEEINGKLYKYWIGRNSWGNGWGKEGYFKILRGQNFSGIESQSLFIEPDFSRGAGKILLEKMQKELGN", "assay": "primary screen, percent inhibition; read by cleavage of a fluorogenic dipeptide substrate; higher = more effect of the substance", "design": "species or system P. falciparum D10 trophozoite lysates; single well", "units": {"% Inhibition @ 10 uM": "%"}, "values": [
      {"compound": "O=C1CCCN1CCCNc1nc(-c2cccc(Cl)c2)c2c(n1)-c1ccccc1OC2", "% Inhibition @ 10 uM": 3.92},
      {"compound": "COc1cccc(C(=O)N2CCC(C(=O)Nc3cc(C)cc(C)c3)CC2)c1", "% Inhibition @ 10 uM": -3.26},
      {"compound": "COc1ccc(N2CCN(C(=O)COc3ccc(S(=O)(=O)NC(C)C)cc3)CC2)cc1", "% Inhibition @ 10 uM": 1.62},
      {"compound": "OC1CCCN(Cc2cccc(Br)c2)C1", "note": "(stereo not shown)", "% Inhibition @ 10 uM": 2.33},
      {"compound": "CCOC(=O)C1=CN(C)C=C(C(=O)OCC)C1c1ccc(OC)c(OCc2ccccc2)c1", "% Inhibition @ 10 uM": 3.26},
      {"compound": "CCOc1ccc(-n2c(SCc3nc(-c4ccc(C)cc4)no3)nnc2-c2ccncc2)cc1", "% Inhibition @ 10 uM": 4.47},
      {"compound": "COc1ccc2c(=O)c(C(=O)O)c(-c3ccc4c(c3)OCO4)n(C)c2c1", "% Inhibition @ 10 uM": 0.245},
      {"compound": "COc1cc(CN(C)CCN(C)C)ccc1OCc1ccccc1", "% Inhibition @ 10 uM": -3.42},
      {"compound": "O=C(Nc1cccc(Cl)c1)N1CCN(c2ccccc2)CC1", "% Inhibition @ 10 uM": -1.36},
      {"compound": "CCc1nnc(NC(=O)CCc2nc(C3=CCN(C)CC3)no2)s1", "% Inhibition @ 10 uM": -6.59},
      {"compound": "COc1ccc(-c2nc(C#N)c(NCCCN3CCOCC3)o2)cc1", "% Inhibition @ 10 uM": -3.23},
      {"compound": "Cc1ccc(C(=O)NCc2cccc(CNC(=O)c3ccc(C)cc3)c2)cc1", "% Inhibition @ 10 uM": -3.18},
      {"compound": "Cc1ccc(NC(=O)C2CCCN2C(=O)OCc2ccccc2)c(C)c1", "note": "(stereo not shown)", "% Inhibition @ 10 uM": -1.88},
      {"compound": "CCOc1cc(C2NC(C(=O)O)CS2)ccc1OC", "note": "(stereo not shown)", "% Inhibition @ 10 uM": -2.07},
      {"compound": "CCOc1ccc2nc(Nc3nc(C)c(Cc4ccccc4)c(O)n3)nc(C)c2c1", "% Inhibition @ 10 uM": 0.163},
      {"compound": "CCOc1cccc(C(=O)Nc2nn3c(-c4ccc(OC)c(OC)c4)nnc3s2)c1", "% Inhibition @ 10 uM": 0.229},
      {"compound": "C=CCCCC(=O)NCC1CCCO1", "note": "(stereo not shown)", "% Inhibition @ 10 uM": 4.55},
      {"compound": "c1ccc(NC(c2ccccc2)c2ccncc2)cc1", "note": "(stereo not shown)", "% Inhibition @ 10 uM": 4.57},
      {"compound": "CN(Cc1ccccc1)Cc1ccncc1", "% Inhibition @ 10 uM": -4.95},
      {"compound": "CC1=C(C(=O)Nc2ccccc2C)C(c2cccnc2)n2nc(CCCO)nc2N1", "note": "(stereo not shown)", "% Inhibition @ 10 uM": 2.93},
      {"compound": "O=C1CC(NC2CCCC2)C(=O)N1c1ccc(Br)cc1", "note": "(stereo not shown)", "% Inhibition @ 10 uM": 3.17},
      {"compound": "CCO/C(O)=C1\\C(C)=NC(=S)NC1c1ccc2c(c1)OCO2", "note": "(stereo not shown)", "% Inhibition @ 10 uM": 0.343},
      {"compound": "CCC(Oc1ccccc1)C(=O)Nc1ccc(C(C)=O)cc1", "note": "(stereo not shown)", "% Inhibition @ 10 uM": -8.59},
      {"compound": "CCOC(=O)N1CCN(C(=O)Cn2nc(Cc3ccncc3)c3ccccc3c2=O)CC1", "% Inhibition @ 10 uM": -6.52},
      {"compound": "COc1ccc(C(=O)Nc2ccccc2C(=O)NCC(C)C)cc1", "% Inhibition @ 10 uM": -6.17},
      {"compound": "CCCn1cnc2cc(NC(=O)c3ccco3)ccc21", "% Inhibition @ 10 uM": 2.4},
      {"compound": "COc1ccc(C2NC(=O)N(C)C3=C2C(=O)N(Cc2ccccc2)C3)cc1", "note": "(stereo not shown)", "% Inhibition @ 10 uM": -3.07},
      {"compound": "Cc1ccc2nc3c(O)n(CC(=O)N4CCN(C(=O)c5ccco5)CC4)ncc-3c2c1", "% Inhibition @ 10 uM": -4.78},
      {"compound": "Cc1ccc(-n2nc3c(N4CCCC(C(=O)NCCN(C)C)C4)nnc(C)c3c2C)cc1", "note": "(stereo not shown)", "% Inhibition @ 10 uM": 2.75},
      {"compound": "COC(=O)C1=C(C)N=c2s/c(=C\\c3cccc(Br)c3)c(=O)n2C1c1ccccc1", "note": "(stereo not shown)", "% Inhibition @ 10 uM": -3.69},
      {"compound": "O=C(c1ccc(Cl)cc1)N1CCN(c2ccccc2)CC1", "% Inhibition @ 10 uM": -3.92},
      {"compound": "Cc1cccc(NC(=O)CCC(=O)O)c1", "% Inhibition @ 10 uM": -0.192},
      {"compound": "O=C(c1ccc2c(c1)sc1nc(-c3ccc(F)cc3)cn12)N1CCOCC1", "% Inhibition @ 10 uM": 26},
      {"compound": "CCn1cc(/C=C(\\NC(=O)c2ccco2)C(=O)NCCc2c[nH]c3ccccc23)c2ccccc21", "% Inhibition @ 10 uM": -1.74},
      {"compound": "O=C(NCc1cccnc1)c1cc2c(=O)oc3ccccc3c2s1", "% Inhibition @ 10 uM": -2.01},
      {"compound": "O=C(CC1(O)C(=O)Nc2ccc(Br)cc21)c1ccc(Cl)s1", "note": "(stereo not shown)", "% Inhibition @ 10 uM": 0.317},
      {"compound": "COCCN1C(=O)C(O)=C(C(=O)c2cccs2)C1c1ccccc1F", "note": "(stereo not shown)", "% Inhibition @ 10 uM": -5.34},
      {"compound": "COc1ccc(-c2nc3c4ccccc4nc(S)n3n2)cc1", "% Inhibition @ 10 uM": -0.326},
      {"compound": "Cc1cc(N2CCOCC2)nc(-c2ccccc2O)n1", "% Inhibition @ 10 uM": 4.63},
      {"compound": "O=C1CC(Cc2ccc(Cl)cc2)C(=O)N1c1ccncc1", "note": "(stereo not shown)", "% Inhibition @ 10 uM": 0.415},
      {"compound": "CC(=O)N(C)c1ccc(NC(=O)CCC(=O)O)cc1", "% Inhibition @ 10 uM": -3.42},
      {"compound": "C=CCOC(=O)c1sc(NC(=O)c2ccc(Cl)cc2)nc1C", "% Inhibition @ 10 uM": 0.389},
      {"compound": "O=C(CNc1ncnc2onc(-c3ccc(F)cc3)c12)N(Cc1cccs1)C1CCCC1", "% Inhibition @ 10 uM": -0.495},
      {"compound": "Cc1ccc(C2Nc3ccccc3N=C3CC(c4cccs4)CC(O)=C32)s1", "note": "(stereo not shown)", "% Inhibition @ 10 uM": -2.83},
      {"compound": "CCOC(=O)c1c(C)[nH]c(C)c1C#N", "% Inhibition @ 10 uM": 1.63},
      {"compound": "Cc1cc(C)cc(NS(=O)(=O)c2ccc(NC(=O)COc3cccc(C)c3)cc2)c1", "% Inhibition @ 10 uM": 2.73},
      {"compound": "COc1cccc(/C=C/C(=O)c2c(O)cc(C)oc2=O)c1O", "% Inhibition @ 10 uM": 4.73},
      {"compound": "COc1ccc(-c2nc(SC)n(S(=O)(=O)c3ccccc3)n2)cc1", "% Inhibition @ 10 uM": 2.46},
      {"compound": "CC(C)C(=O)N1CCN(c2ccc(NC(=O)c3ccc(C#N)cc3F)cc2Cl)CC1", "% Inhibition @ 10 uM": 1.84},
      {"compound": "Cc1ccc(C2C3=C(O)CC(c4ccc(Cl)cc4)CC3=Nc3ncnn32)cc1", "note": "(stereo not shown)", "% Inhibition @ 10 uM": -3.53},
      {"compound": "O=S(=O)(Nc1nc2ccccc2nc1Nc1ccc2ccccc2c1)c1ccccc1", "% Inhibition @ 10 uM": 4.44},
      {"compound": "CCOc1ccccc1C1C2=C(O)CC(C)(C)CC2=NC(C)=C1C(=O)Nc1ccccc1C", "note": "(stereo not shown)", "% Inhibition @ 10 uM": 6.98},
      {"compound": "CCOC(=O)C1=C(CSc2nnc(N)s2)NC(=O)NC1c1cc(C)ccc1C", "note": "(stereo not shown)", "% Inhibition @ 10 uM": -0.834},
      {"compound": "CCc1nnc(NC(=O)C(=O)c2cc(C)n(-c3ccc(F)cc3)c2C)s1", "% Inhibition @ 10 uM": 2.32},
      {"compound": "COc1ccc(Br)cc1C1CC(=O)Nc2c1c(C)nn2-c1nc2ccccc2s1", "note": "(stereo not shown)", "% Inhibition @ 10 uM": -1.11},
      {"compound": "CCN(CC)C(=O)C1CCCN(Cc2c(C)n(C)n(-c3ccccc3)c2=O)C1", "note": "(stereo not shown)", "% Inhibition @ 10 uM": -4.98},
      {"compound": "CNCCn1ccc2ccccc21", "% Inhibition @ 10 uM": 1.63},
      {"compound": "O=C(CSc1nc(-c2cccs2)cc(C(F)(F)F)n1)NCc1cccs1", "% Inhibition @ 10 uM": 1.39},
      {"compound": "NC(=O)C1CCCN(Cc2ccc(Cl)cc2Cl)C1", "note": "(stereo not shown)", "% Inhibition @ 10 uM": -1.5},
      {"compound": "Nc1c(NCCN2CCCC2)c2ccccc2oc1=O", "% Inhibition @ 10 uM": -4.21},
      {"compound": "COc1ccc(S(=O)(=O)N(CC(=O)N2CCCCCC2)c2ccc(Cl)cc2)cc1", "% Inhibition @ 10 uM": 1.27},
      {"compound": "CCn1c(C)c(C)c2cc(C(=O)N3CCc4ccccc4C3)ccc21", "% Inhibition @ 10 uM": 0.399},
      {"compound": "COc1cccc(CN2CCN(C(=O)c3cccc(Cl)c3)CC2)c1OC", "% Inhibition @ 10 uM": -1.77},
      {"compound": "CC(NC(=O)c1cc2c(O)nc3ccccc3c2s1)c1ccc2c(c1)OCCO2", "note": "(stereo not shown)", "% Inhibition @ 10 uM": 4.51}
    ]}
  ]
}
